Source: patent US20240166752A1 (HEFEI TG IMMUNOPHARMA, published 2024)

Target: T1, MICA expressed on CHO-K1-MICA cells (human, UniProt Q29983 24-383)
T1 construct: Full-length entry as expressed from the lentiviral vector
T1 sequence: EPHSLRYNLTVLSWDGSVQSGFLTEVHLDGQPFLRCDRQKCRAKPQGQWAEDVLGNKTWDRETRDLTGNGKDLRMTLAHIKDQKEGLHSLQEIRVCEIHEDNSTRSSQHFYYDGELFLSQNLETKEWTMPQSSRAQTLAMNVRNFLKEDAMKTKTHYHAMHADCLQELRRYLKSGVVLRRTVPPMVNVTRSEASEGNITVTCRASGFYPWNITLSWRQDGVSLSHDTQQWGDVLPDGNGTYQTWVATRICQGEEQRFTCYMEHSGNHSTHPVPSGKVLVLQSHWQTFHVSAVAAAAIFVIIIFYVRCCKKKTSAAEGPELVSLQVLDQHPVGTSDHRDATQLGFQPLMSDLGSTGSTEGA
Experiment: flow cytometry, NKG2D-Fc on CHO-K1-MICA cells in the presence of antibody 5A1
Description: The MICA antibody can promote the signaling pathway of MICA and its receptor NKG2D by binding to the extracellular region of MICA. In this example, the effect of the MICA antibody on the binding of MICA to its receptor NKG2D was detected by flow cytometry.
The CHO-K1-MICA cells obtained in Example 4 were diluted to 2×10⁶ cells/mL with PBS and were added to a 1.5 mL EP tube in a volume of 100 μL/tube. Mouse serum at 10 μL/tube was added thereto and was blocked at 4° ° C. for 30 min. MICA antibodies No. 5A1 and the control antibody IgG1 (Biolegend, MG1-45) with a series of dilution gradients (10⁻⁴, 10⁻³, 10⁻², 10⁻¹, 10⁰, 10¹ μg/mL) were added and incubated at 4° C. for 30 min. NKG2D extracellular region Fc fusion protein (NKG2D-Fc, SEQ ID NO: 32, obtained by expression in this laboratory) was added at 2 μg/tube and incubated for 30 min at 4° C. The EP tube was added with 1 mL of PBS and centrifuged at 3500 rpm at 4° C. for 5 min. The supernatant was discarded and the precipitate was washed once more with PBS. After centrifugation, the supernatant was discarded. The cells were resuspended with 100 μL/tube of PBS, and 1 μL/tube of 647-labeled mouse anti-human antibody secondary antibody (Biolegend, HP6017) was added thereto, and incubated at 4° C., under the condition of avoiding light, for 30 min. […] The cells were resuspended with 200 μL/tube of PBS and detected by flow cytometry. […]

binding result: binds
B1: NKG2D extracellular region Fc fusion protein (NKG2D-Fc) (Fc fusion)
chain: IWSAVFLNSLFNQEVQIPLTESYCGPCPKNWICYKNNCYQFFDESKNWYESQASCMSQNASLLKVYSKEDQDLLKLVKSYHWMGLVHIPTNGSWQWEDGSILSPNLLTIIEMQKGDCALYASSFKGYIENCSTPNTYICMQRTV[gap - human IgG1 Fc]
notes: expressed in the applicant's laboratory; also called receptor NKG2D
